# Reference: PubChem BioAssay AID504333 (National Center for Advancing Translational Sciences (NCATS), 2011)
# The campaign covered roughly 360,000 compounds. About 16,000 (4.4%) were called active. Inconclusive means that the source gave no clear call. Such entries were picked first, then a sample of the others. Calls come from the whole dose curve; as a rule, active = well fitted inhibition curve with a large enough effect; inconclusive = small, poorly fitted or top-dose-only effect; inactive = no such curve, though single readings can be large or run the other way. A potency beside an inconclusive call is a rough fit, not a confirmed value.
# Molecular target: Bromodomain adjacent to zinc finger domain protein 2B (Homo sapiens) (UniProt Q9UIF8)
# Chain of UniProt Q9UIF8 (Q9UIF8 whole entry, looked up, the tested form may be a part): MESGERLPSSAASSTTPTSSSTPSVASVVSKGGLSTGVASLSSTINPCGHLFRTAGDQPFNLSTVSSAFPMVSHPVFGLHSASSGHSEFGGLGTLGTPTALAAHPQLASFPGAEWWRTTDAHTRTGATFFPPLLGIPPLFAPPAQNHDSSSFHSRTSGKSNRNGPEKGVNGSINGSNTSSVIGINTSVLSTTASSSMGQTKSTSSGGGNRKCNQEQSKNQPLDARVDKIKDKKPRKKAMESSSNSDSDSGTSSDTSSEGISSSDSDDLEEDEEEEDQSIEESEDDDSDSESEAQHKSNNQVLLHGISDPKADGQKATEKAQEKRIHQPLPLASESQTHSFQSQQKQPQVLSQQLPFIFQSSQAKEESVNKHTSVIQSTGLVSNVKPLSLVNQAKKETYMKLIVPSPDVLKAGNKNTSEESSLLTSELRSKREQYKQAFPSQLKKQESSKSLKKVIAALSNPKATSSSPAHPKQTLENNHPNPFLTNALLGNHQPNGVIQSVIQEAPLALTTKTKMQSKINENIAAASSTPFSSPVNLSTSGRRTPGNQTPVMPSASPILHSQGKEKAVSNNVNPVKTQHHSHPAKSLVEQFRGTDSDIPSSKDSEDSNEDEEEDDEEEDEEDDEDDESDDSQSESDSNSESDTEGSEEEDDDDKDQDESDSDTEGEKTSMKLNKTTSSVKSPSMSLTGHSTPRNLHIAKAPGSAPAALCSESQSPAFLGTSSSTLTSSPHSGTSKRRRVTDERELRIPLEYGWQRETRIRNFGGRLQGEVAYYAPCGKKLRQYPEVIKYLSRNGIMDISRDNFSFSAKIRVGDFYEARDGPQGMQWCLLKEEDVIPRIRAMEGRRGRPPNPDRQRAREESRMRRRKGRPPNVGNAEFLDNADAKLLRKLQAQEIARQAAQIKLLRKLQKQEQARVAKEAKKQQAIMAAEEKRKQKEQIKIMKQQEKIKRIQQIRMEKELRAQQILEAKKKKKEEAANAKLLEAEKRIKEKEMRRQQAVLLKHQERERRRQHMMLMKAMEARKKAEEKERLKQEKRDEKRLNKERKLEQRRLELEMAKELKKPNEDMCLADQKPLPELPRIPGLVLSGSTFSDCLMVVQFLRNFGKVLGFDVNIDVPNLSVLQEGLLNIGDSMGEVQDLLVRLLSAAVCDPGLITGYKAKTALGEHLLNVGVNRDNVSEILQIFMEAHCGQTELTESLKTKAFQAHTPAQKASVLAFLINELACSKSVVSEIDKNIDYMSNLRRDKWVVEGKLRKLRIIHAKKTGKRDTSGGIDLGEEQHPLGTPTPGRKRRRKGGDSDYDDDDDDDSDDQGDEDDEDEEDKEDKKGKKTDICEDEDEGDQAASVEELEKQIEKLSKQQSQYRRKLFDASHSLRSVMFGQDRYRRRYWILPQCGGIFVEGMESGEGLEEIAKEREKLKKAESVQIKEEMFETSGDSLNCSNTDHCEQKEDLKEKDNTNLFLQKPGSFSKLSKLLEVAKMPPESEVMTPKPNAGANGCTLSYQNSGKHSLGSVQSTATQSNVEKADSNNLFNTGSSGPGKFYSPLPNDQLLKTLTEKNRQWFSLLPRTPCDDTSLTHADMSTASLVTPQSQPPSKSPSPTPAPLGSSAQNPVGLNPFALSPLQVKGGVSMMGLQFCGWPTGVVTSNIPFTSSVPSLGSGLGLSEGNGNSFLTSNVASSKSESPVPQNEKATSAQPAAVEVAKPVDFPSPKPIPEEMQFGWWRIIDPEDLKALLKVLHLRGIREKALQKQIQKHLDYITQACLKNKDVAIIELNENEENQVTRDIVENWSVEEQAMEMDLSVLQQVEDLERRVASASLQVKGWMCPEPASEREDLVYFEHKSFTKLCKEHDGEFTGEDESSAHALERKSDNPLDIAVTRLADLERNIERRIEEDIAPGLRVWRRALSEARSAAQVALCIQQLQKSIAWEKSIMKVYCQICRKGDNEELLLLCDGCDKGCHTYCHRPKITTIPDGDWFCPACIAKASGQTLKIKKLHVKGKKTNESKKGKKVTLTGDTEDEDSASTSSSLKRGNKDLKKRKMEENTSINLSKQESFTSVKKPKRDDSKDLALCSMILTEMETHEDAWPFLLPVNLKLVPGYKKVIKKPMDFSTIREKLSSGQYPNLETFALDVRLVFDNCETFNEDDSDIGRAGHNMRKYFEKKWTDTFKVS
# Assay: qHTS Assay for Inhibitors of BAZ2B; note: nearly all actives have a fitted effect of over 60% in size
# Conditions: AlphaScreen BAZ2B-H3K14Ac peptide displacement; activity change, negative = inhibition: at 114 µM (top of the series) unless noted
# Summary of the method: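 BAZ2B (50 nM) with biotin-H3(5-23)K14Ac peptide (50 nM) in PBS pH 7.4, 0.01% Tween-20, preformed 30 min, then compound 30 min at room temperature; top concentration 110uM. AlphaScreen streptavidin donor/nickel chelate acceptor beads (10 ug/mL final), 20 min dark, signal read.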
# % is set by controls: 0 for no effect and ±100 for the full control effect; potency is the fitted concentration of half-maximal effect; tags give direction and shape of the fitted curve.
Compound,"activity change, negative = inhibition",Potency
CN(C)CCN1C(=O)C2C(C(=O)Nc3cc(Cl)cc(Cl)c3)C3C=CC2(O3)C1C(=O)NC1CCCCC1 (centres undefined),inactive: 5.41%,
CCOc1ccccc1N1CC(c2nc3ccccc3n2Cc2c(C)cc(C)cc2C)CC1=O (centres undefined),,"inconclusive: 39.8 µM [inhibitor, partial curve]"
C[n+]1ccccc1/C=C/c1ccc(C#N)cc1,,active: 44.7 µM
CCCN(CCC)CCNC(=O)c1ccc2c(c1)NC(=O)C(CS(=O)(=O)Cc1cccc(Br)c1)N2 (centres undefined),,"inconclusive: 15.8 µM [inhibitor, full curve]"
COc1ccc(N/N=C(/C#N)S(=O)(=O)c2nsc(C)c2C#N)cc1,,"inconclusive: 50.1 µM [inhibitor, partial curve]"
CCc1ccc(N=C2NC(=O)/C(=C/c3cc(OC)c(O)c(OC)c3)S2)cc1,inconclusive: -42% [inhibitor],
Cn1c(=O)[nH]c(=O)c2c1nc(N1CCC(Cc3ccccc3)CC1)n2Cc1ccccc1,,"inconclusive: 35.5 µM [inhibitor, full curve]"
O=C(NC(=S)Nc1ccccc1N1CCCCC1)c1ccccc1,,"inconclusive: 35.5 µM [inhibitor, partial curve]"
CCn1cc(C(=O)NCc2ccc3c(c2)OCO3)c(=O)c2cc(F)c(N3CCN(C(=O)c4ccco4)CC3)cc21,,"inconclusive: 89.1 µM [inhibitor, single point]"
Cc1cc(NC(=O)CSc2nnc(-c3ccco3)o2)no1,,"inconclusive: 89.1 µM [inhibitor, single point]"
CC1=C(C(=O)OCC2CCCO2)C(c2ccc(C)o2)C2=C(CC(c3ccc(N(C)C)cc3)CC2=O)N1 (centres undefined),,active: 39.8 µM
COC(=O)C1=C(C)N(CCc2ccccc2)C(=O)C1,inactive: 12.2%,
C#CCOc1c(Br)cc(/C=C2/C(=O)ON=C2C)cc1OCC,,"inconclusive: 56.2 µM [inhibitor, partial curve]"
CCCCN(C(=O)c1cccc(-n2cccc2)c1)c1c(N)n(Cc2ccccc2)c(=O)[nH]c1=O,,active: 44.7 µM
COc1ccc(N2C(=O)C(Cl)=C(Oc3cccc(OC)c3)C2=O)cc1,,active: 44.7 µM
O=[N+]([O-])c1nn(-c2ccc(Cl)cc2)n(O)c1=NCc1ccccc1Cl,,"inconclusive: 50.1 µM [inhibitor, partial curve]"
CCCOc1cccc(C2C(C(=O)c3ccc(C)o3)=C(O)C(=O)N2c2nc(C)c(C(C)=O)s2)c1 (centres undefined),,active: 56.2 µM
COc1ccc(NC(=O)c2c(C)oc3ccc(O)c(CN4CCCCCC4)c23)cc1Cl,,"inconclusive: 39.8 µM [inhibitor, partial curve]"
O=[N+]([O-])c1ccc(Cl)cc1CNc1ccc(F)c(F)c1,,"inconclusive: 79.4 µM [inhibitor, single point]"
O=C1OC(c2ccco2)=N/C1=C\c1ccc(-c2cccc(C(F)(F)F)c2)o1,,"inconclusive: 79.4 µM [inhibitor, single point]"
CC(CNC(=O)CN1C(=O)c2cccnc2Oc2ccc(Cl)cc21)c1ccccc1 (centres undefined),,"inconclusive: 56.2 µM [inhibitor, partial curve]"
COc1ccc(OC)c(Nc2nc(NCCC(C)C)nc(N)c2[N+](=O)[O-])c1,inactive: -32.4%,
CC1CC(C)CN(CCOc2ccc(Br)cc2)C1 (centres undefined),,"inconclusive: 89.1 µM [inhibitor, single point]"

Compound,"activity change, negative = inhibition",Potency
Brc1ccc(-c2csc(N/N=C/c3ccco3)n2)cc1,,active: 8.91 µM
COc1cc(CNc2ccc(CNc3ncn[nH]3)cc2)ccc1OCc1ccccc1,,"inconclusive: 7.94 µM [inhibitor, full curve]"
C=CCNCc1cccn1-c1sc2c(c1C#N)CCCC2,,"inconclusive: 89.1 µM [inhibitor, single point]"
CC(=O)c1cccc(NC(=O)COC(=O)COc2ccc(Cl)cc2)c1,,"inconclusive: 39.8 µM [inhibitor, full curve, poor fit]"
O=C(NC(=S)NC1CCCCCC1)c1cncc(Br)c1,inactive: -8.65%,
O=C(CN1CCC(Cc2ccccc2)CC1)N1CCc2ccccc2C1,,active: 50.1 µM
CCOc1ccccc1N(C(=O)CNS(=O)(=O)c1ccccc1)C(CC)C(=O)NCc1ccco1 (centres undefined),,"inconclusive: 89.1 µM [inhibitor, single point]"
COc1cccc(CN2CCNC(=O)C2CC(=O)NCc2cn3ccccc3n2)c1OC (centres undefined),inactive: -17.9%,
O=Nc1c(-c2ccccc2)cc2ccccn12,,active: 79.4 µM
COc1ccc(-c2nnc3n2N(C(C)=O)C(c2ccc(Cl)c(Cl)c2)=C(C(C)=O)S3)cc1,inactive: -3.5%,
COc1ccccc1NC(=O)Cn1c(=O)c(CNc2ccc(C)cc2)cc2cc3c(cc21)OCCO3,,"inconclusive: 89.1 µM [inhibitor, single point]"
CCC(CC)c1nnc(NC(=O)COc2ccc3c(c2)OCO3)s1,,"inconclusive: 44.7 µM [inhibitor, partial curve]"
Cc1ccc(-c2cc(-c3n[nH]c(=S)o3)c3ccccc3n2)cc1,,"inconclusive: 89.1 µM [inhibitor, single point]"
Nc1c2c(nc3ccccc13)CCC2,inactive: -4.82%,
Cc1ccc(C)c(C(=O)c2c(C)nc3sccn23)c1,inactive: 22.1%,
O=C(COC(=O)Cn1[nH]c(=O)c2ccccc2c1=O)Nc1ncc(Cl)cc1Cl,,"inconclusive: 89.1 µM [inhibitor, single point]"
COc1cc(OC)c2c(-c3ccccc3)cc(=O)oc2c1C(CCN1CCCC(C)C1)c1ccc2c(c1)OCO2 (centres undefined),,"inconclusive: 56.2 µM [inhibitor, partial curve]"
C[C@@H]1O[C@@H](O[C@H]2[C@H](Oc3cc(O)c4c(c3)O[C@H](c3ccc(O)cc3)CC4=O)O[C@H](CO)[C@@H](O)[C@@H]2O)[C@H](O)[C@H](O)[C@H]1O,inactive: -15.8%,
O=C(Cn1c(=O)n(Cc2ccc3c(c2)OCO3)c(=O)c2oc3ccccc3c21)Nc1ccccc1F,inactive: -16.2%,
CCCOc1ccc(C(CC(=O)O)NC(=O)C23CC4CC(CC(C4)C2)C3)cc1 (centres undefined),,"inconclusive: 89.1 µM [inhibitor, single point]"
CCOC(=O)CCC(=O)NCc1ccc2c(c1)cc(C)n2C,inactive: -14.7%,
CC(=O)Oc1c(Sc2ccccc2[N+](=O)[O-])c(C)nn1C(C)(C)C,,"inconclusive: 39.8 µM [inhibitor, partial curve]"
COc1ccc(-c2csc(/C(C#N)=C\c3ccc(O)c([N+](=O)[O-])c3)n2)cc1OC,,active: 11.2 µM

Compound,"activity change, negative = inhibition",Potency
COc1ccc(C(=O)Nc2ccc3c(c2)CCCN3C(=O)c2cccs2)c(OC)c1,,"inconclusive: 22.4 µM [inhibitor, full curve]"
Cc1ccccc1OCCn1cnc2cc([N+](=O)[O-])ccc2c1=O,,"inconclusive: 17.8 µM [inhibitor, full curve, poor fit]"
COc1cc(OC)c(OC)cc1CN1CCC(O)CC1,,"inconclusive: 89.1 µM [inhibitor, single point]"
Cc1ccccc1C1CCCN(Cc2nc(C3CC3)no2)C1 (centres undefined),inactive: 7.43%,
CC(=O)c1cccc(NC(=O)CSc2nc(N3CCCCC3)nc(N3CCCCC3)n2)c1,,"inconclusive: 79.4 µM [inhibitor, single point]"
CCc1c(C)c2ccc(OC(C)C(=O)NC(Cc3c[nH]c4ccc(O)cc34)C(=O)O)c(C)c2oc1=O (centres undefined),,"inconclusive: 70.8 µM [inhibitor, single point]"
CCN(C(=O)Cn1cnc2onc(-c3ccc(F)cc3)c2c1=O)c1ccc(OC)cc1,inactive: 6.83% [at 57.1 µM],
CCCCC(=O)Nc1cccn2ncnc12,inactive: -2.16%,
O=[N+]([O-])c1ccc(-c2cc(-c3ccc(Cl)cc3)n[nH]2)cc1,inactive: -37%,
O=C(CCc1nnc2ccc(NCc3ccc(Cl)cc3)nn12)NC1CCCCC1,,"inconclusive: 31.6 µM [inhibitor, partial curve]"
Cc1ccc(/C=C2\SC(=S)N(c3cccnc3)C2=O)o1,,"inconclusive: 89.1 µM [inhibitor, single point]"
COC(=O)Cc1cc(=O)[nH]c(/N=C(\N)Nc2ccc(C(C)C)cc2)n1,,"inconclusive: 100 µM [inhibitor, single point]"
CCOC(=O)CC1(NC(=O)c2cc(COc3ccc(F)c(F)c3)on2)CCCCC1,inactive: -5.12% [at 57.1 µM],
CCOC(=O)c1c(/N=C/c2cccc(C)c2O)sc2c1CCN(C)C2,,"inconclusive: 31.6 µM [inhibitor, full curve]"
CCOc1ccccc1CN1CCc2nc(Nc3ccc4c(c3)OCCO4)ncc2C1,,active: 39.8 µM
COC(=O)c1ccccc1NC(=O)CSc1nc2ccccc2c(=O)[nH]1,,"inconclusive: 89.1 µM [inhibitor, single point]"
Cc1csc(=O)n1CCC(=O)OCC(=O)NNC(=O)c1ccccc1,inactive: -4.05%,
COc1ccc(-n2ncc3c(NCc4ccco4)ncnc32)cc1,,"inconclusive: 79.4 µM [inhibitor, single point]"
Cc1ccccc1Cc1c(C)nc2c(C(=O)NCc3ccco3)cnn2c1C,,"inconclusive: 79.4 µM [inhibitor, single point]"
CCn1c(=O)cc(OCC(=O)N2CCN(c3ccc(OC)cc3)CC2)c2ccccc21,,"inconclusive: 79.4 µM [inhibitor, partial curve]"
O=C(O)CN1C(=O)/C(=C\c2cc(Br)ccc2OCc2ccc([N+](=O)[O-])cc2)SC1=S,,active: 44.7 µM
FC(F)Oc1ccc(NC(=S)NNc2ccnc3cc(Cl)ccc23)cc1,,"inconclusive: 44.7 µM [inhibitor, partial curve]"
S=C(Nc1ccc(Br)cc1)N1CCn2cccc2C1c1cccnc1 (centres undefined),,"inconclusive: 50.1 µM [inhibitor, partial curve]"
